The other results are listed elsewhere or left out.

Drawing on paper PMC12136788, this text covers binding signal for 22 molecules.

Sequences and labels used below:
T1: UNK ZnF1-3 (human, UniProt Q9C0B0 31-174)
T1 sequence: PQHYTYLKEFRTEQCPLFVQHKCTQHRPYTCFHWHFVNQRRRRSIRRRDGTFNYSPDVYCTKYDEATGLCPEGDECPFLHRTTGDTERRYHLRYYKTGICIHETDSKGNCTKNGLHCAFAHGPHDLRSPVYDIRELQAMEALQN

B1: chr7:141445308:141445309:+_ENSG00000106028_ENST00000265304|hu_hu|hu_hu_hu_mus_False|8_8 (ssRNA)
RNA: GGGAGUUCUACAGUCCGACGAUCUAUGAUUGUUGUUGCUUGCCGCCUCACAUUGUUUUUAUCCAUGUACUCGCCAUAGUCCACUUUCCCUUCCACAAAUAUACGAGCCCCCUUUUUCACAUACUGAUAUGCCACGUCUCUGAGCAACAGAGGAUUGAGCAUCA
B2: 72476637_72486543_478_CDS_ENSMUSG00000020794_ENSMUST00000021148|mouse|control|control (ssRNA)
RNA: GGGAGUUCUACAGUCCGACGAUCCUCUGUAAUGAAUUUCAUUUUAGGAGGCCGGAGGGGAUAAUCUUUUGGGAAAGUGAGAUGAGCCUUAAAAACACCACCUUCAUAAAGUGUAUCUGGAGGACCAAUAAUAAGGACUUCCCACAACAGAGGAUUGAGCAUCA
B3: chr9:14120538:14120539:-_ENSG00000147862_ENST00000380959|hu_hu|FALSE|FALSE (ssRNA)
RNA: GGGAGUUCUACAGUCCGACGAUCCUUCAGAGUAUCCUGAGGAUUCAGGUGGGGAGGAUAUCUGAUUGUUGGAUGAGAAAAGUAGCUCGAUGGGGCUGGAGGAAGGAUAGCUUGUGUUGGAAAUGGCAACGGUGAAGGUGGAGGCAACAGAGGAUUGAGCAUCA
B4: chr4:132324321:132324322:+_ENSMUSG00000028884_ENSMUST00000102561|mus_mus|motif|central (ssRNA)
RNA: GGGAGUUCUACAGUCCGACGAUCCACAUCCUGGUCGCAGUUCUCCGGAGAGAGCGGCCCAAGACGCUCGGACACGAAAACGGAGAACACUUGGGAACUCUGUGCCGCUCUGGCGUGGCAGCCUUCUGGCUACUUUGCACUGGCCAACAGAGGAUUGAGCAUCA
B5: chr8:38067721:38067722:+_ENSG00000156735_ENST00000287322|hu_hu|FALSE|FALSE (ssRNA)
RNA: GGGAGUUCUACAGUCCGACGAUCUUUUUUAAUACUCGGAGGAGUACUUUCAUCUGAAGGUACACAUUCUUCAGGAAGACUGCUACUUUGAUCUUGAUUGUUGGGAUGGUCACUGGUGGCAUUACCAUACAGCUGAGGCUCAGCCAACAGAGGAUUGAGCAUCA
B6: chr7:140404665:140404666:+_ENSG00000090266_ENST00000247866|hu_hu|hu_hu_hu_mus_False|1_8 (ssRNA)
RNA: GGGAGUUCUACAGUCCGACGAUCUGCUCCUACUCGUCCAGAGAGUUUACAGUGUCAGUCCUCGUCAUCAGGAGGGAUUCCCAGUUCUUCAUCUGUCCACUGUGAAGGAUCUGGAUAUGAAAAGUGACCCAGCACCUCUUCUGACAACAGAGGAUUGAGCAUCA
B7: chr14:89338683:89338684:+_ENSG00000165533_ENST00000346301|hu_hu|hu_hu_hu_mus_False|98_108 (ssRNA)
RNA: GGGAGUUCUACAGUCCGACGAUCGUGGUUGUUGUUGACCAGAGCCAGCCUGAAGCAUUGGUGGGCCAAGUUUGUAUCUCCGAUUCCCACAGCUAUGUGCCCCAGGUUGUACCAGACAUCAGCUGCCUCUUCUUCAUUUUCAGCCAACAGAGGAUUGAGCAUCA
B8: chr1:163116471:163116472:-_ENSG00000143248_ENST00000313961|hu_hu|motif|central (ssRNA)
RNA: GGGAGUUCUACAGUCCGACGAUCUAUAAAAUACUUCAUUGUUGAUCUUAGGUCAUUGAUUUAAAACAGAAUUUGGUGACGGUGGGCAGGUGGAGGGGGCCAGUGAGGAAGGUAUAAAAGAGAAAUCUUUAUGAAUUGUGUUCACAACAGAGGAUUGAGCAUCA
B9: chr2:25103730:25103731:-_ENSMUSG00000006471_ENSMUST00000100329|mus_mus|FALSE|FALSE (ssRNA)
RNA: GGGAGUUCUACAGUCCGACGAUCCCAGCCCUUCUGCUCUAGCUUCUGCCAUUCAGUCUGCCAGUAGAAGUCCUGAUCCCGCUGGCGGCAGCCAAAGAACAAGAAGUUUCCAGUUUGGCCAUGAGCCACUCGUUCCUGAAUGGCCAACAGAGGAUUGAGCAUCA
B10: chr11:87793471:87793472:-_ENSMUSG00000020483_ENSMUST00000020775|mus_mus|mus_mus_mus_hu_False|18_98 (ssRNA)
RNA: GGGAGUUCUACAGUCCGACGAUCUGGACUUGAAAAUAAAAAAAAUAGCUGGAUCCCCCACCCCCCCACAUUGUCAACCCUACACGAGAGUUUUGAAGGCGACUCAUGAAAAUCAGCCUCAAUUGGCGCAAUGACCACCCCACCCAACAGAGGAUUGAGCAUCA
B11: chr3:150289777:150289778:+_ENSG00000144895_ENST00000460851|hu_hu|FALSE|FALSE (ssRNA)
RNA: GGGAGUUCUACAGUCCGACGAUCUUUGGCAGGCAUAAAACCAUAUACAGCACAAAACUCAGUAGAACUAGAAUUCCAAACUACAUCAUAAAUGGGGCCAUUUUUUGGUAAUUGCACUACAGCACUUUCUCCAUUUGUUGCAAUCAACAGAGGAUUGAGCAUCA
B12: chr1:58468927:58468928:-_ENSMUSG00000026034_ENSMUST00000148330|mus_mus|mus_mus_mus_hu_False|1_28 (ssRNA)
RNA: GGGAGUUCUACAGUCCGACGAUCAAUUACUGAAAAAGAUGUUCAUUACCUUAGCUAUGUACUUAAUGAACCAAAUUACCCAAACAAAAUAAACAUGGCAAUAUAAAAAGCUAUACAAUUUACAAAGCUGUACAAAAAGACUGACAACAGAGGAUUGAGCAUCA
B13: chr14:76904430:76904431:+_ENSMUSG00000022010_ENSMUST00000022587|mus_mus|mus_mus_mus_hu_True|8_78 (ssRNA)
RNA: GGGAGUUCUACAGUCCGACGAUCUGCAGCCAAAAACACCCUCGUGGAAAAAAAGAGCAAGCUCCAGCAGCCUUGUAUAAGCUAGAUAAAAUCUUCUGGCUUUCCGCAGCCCAGGGAGAAACAGAAAUGGUGCUGGCUAAUUUACAACAGAGGAUUGAGCAUCA
B14: 235951258_235951378_2309_CDS_ENSG00000130147_ENST00000392011|human|control|control (ssRNA)
RNA: GGGAGUUCUACAGUCCGACGAUCGCUGGACACCGGGCGGUCCUGGAAAGUCGGGUACUUUGUAGUGGUGGCAAACGGGGACAGGAUGAUUUUCCCGACUUCGUUCUUCUUGAGAAACCUCCUUUGCCCGGAAGGCUUGAUGGCCAACAGAGGAUUGAGCAUCA
B15: chr4:25749455:25749456:-_ENSG00000091490_ENST00000264868|hu_hu|hu_hu_hu_mus_False|38_98 (ssRNA)
RNA: GGGAGUUCUACAGUCCGACGAUCGCACUAUGACCUCCCCUAGAAAACACAGGGGGAAAAAAUGUAAACCAAUGUACAAUGUUAUCGCCUUCCCUGUAUUUCCAGGCUUUGUCUCAAGGCUCCUUCUAGCUGCUGGAUUUGGGACAACAGAGGAUUGAGCAUCA
B16: 98677862_98679720_10419_CDS_ENSMUSG00000048154_ENSMUST00000023741|mouse|control|control (ssRNA)
RNA: GGGAGUUCUACAGUCCGACGAUCGGCCUUUGCAAUAGGAUCAAUGAUGUCUUCUGCAGCAAAUUUGUCUAGGUCUGUGUCUGGGAAGAAACUAUUCGCCAGCUGCUGCUGCUGCAUCGCCAGCUGCUGGGGCUUCAUGCACAUCAACAGAGGAUUGAGCAUCA
B17: chr12:105536279:105536280:+_ENSG00000136051_ENST00000332180|hu_mus|hu_hu_hu_mus_True|1_18 (ssRNA)
RNA: GGGAGUUCUACAGUCCGACGAUCAGCACUGAACAUGUAAUGUAAUCUGGCUGCAUCGACAGCAUUUUCAUAUACAUCAUCUAAAUAAAUCGGGAAGACAGCGCGAUGCCAGUAUAAAAAACAACAGUCACACUGUGUUUGGACCAACAGAGGAUUGAGCAUCA
B18: 29435745_29437597_3071_CDS_ENSG00000153339_ENST00000582539|human|control|control (ssRNA)
RNA: GGGAGUUCUACAGUCCGACGAUCUGCAGUGUGUCUUAAUAUUCUGUGCCGUAUUUUUGGCUGCUUUUUGACACUUUCAUAGUAAAACAAAAAGUUAAUUUCAUGGACACCUUCUUCAUCAGGCCCACGUAACCACAUUGGCAGCAACAGAGGAUUGAGCAUCA
B19: chr4:39779992:39779993:+_ENSG00000078140_ENST00000510719|hu_hu|motif|central (ssRNA)
RNA: GGGAGUUCUACAGUCCGACGAUCCUCAGAAGCAAUUCUGUUGCAGUCUCUACAUCCCAUGAUUUUGAAGACAAGGCCACGGUUACUGCAUUCCUAUCAAAGCCCAUAGCACAUAGGUUUUCUAUUUUUUUGGUGUAUUCUGGACAACAGAGGAUUGAGCAUCA
B20: chr12:49579495:49579496:-_ENSG00000167552_ENST00000550767|hu_hu|motif|central (ssRNA)
RNA: GGGAGUUCUACAGUCCGACGAUCGGCUCCAUCAAAUCUCAGGGAAGCAGUGAUGGAGGACACAAUUUGACCUAUUAACCGGUUCAGGUUAGUAUAGGUUGGACGCUCAAUAUCGAGGUUUCUACGACAGAUGUCAUAGAUGGCCAACAGAGGAUUGAGCAUCA
B21: chr1:39494447:39494448:+_ENSG00000168653_ENST00000372967|hu_mus|hu_hu_hu_mus_False|88_98 (ssRNA)
RNA: GGGAGUUCUACAGUCCGACGAUCGCACCGAGCGGCGAUCUUGUAGGGCUGUUCACCGCUUAGGAACAUAAAGUGCCGGUCCAGGCUGAUGCCCAGCUUUUUCUGUAUGUCAAGGAAAGGCAUGGCUCUGCAGUGCCCUUGUCACAACAGAGGAUUGAGCAUCA
B22: chr2:85280848:85280849:+_ENSG00000176407_ENST00000409785|hu_hu|FALSE|FALSE (ssRNA)
RNA: GGGAGUUCUACAGUCCGACGAUCCAUGCAGUAGUUAAGGUAAACCAUCCAAGCAGUUUUUAUUCAUUAAUAUUCAUAAAUACACACAGCAGCUUCAUUAGAGAUUUCAAUUUUCCUCUUCAGUUUGAAUGUGGAGUAUUAGGACAACAGAGGAUUGAGCAUCA

The assay concerns the target T1, UNK ZnF1-3. The assay is described as follows: nsRBNS (natural sequence RNA bind-n-seq); RBNS binding buffer (assumed for nsRBNS): 25 mM Tris pH 7.5, 150 mM KCl, 3 mM MgCl2, 0.01% Triton X-100, 500 ug/ml BSA, 20 U/ml SUPERase-In, 4 C; UNK is unkempt and MSI1 is Musashi-1; names of the RNAs are library labels; protein concentration not given here; high values mean tight binding.
Regarding B1, the binding signal is 0.618 enrichment R. The same measure for B2: 1.8 enrichment R; for B3: 1.94 enrichment R; for B4: 0.687 enrichment R. The same measure for B5: 0.664 enrichment R; for B6: 1.19 enrichment R. B7 came in with a binding signal of 0.58 enrichment R.

On to B8, for which the binding signal turned out to be 2.06 enrichment R.

With B9, the binding signal was found to be 0.798 enrichment R. The same measure for B10: 2.89 enrichment R.

B11 yielded a binding signal of 1.06 enrichment R. The same measure for B12: 0.846 enrichment R; for B13: 2.11 enrichment R. The same measure for B14: 0.955 enrichment R; for B15: 1.08 enrichment R. The same measure for B16: 0.912 enrichment R. For B17, the binding signal worked out at 1.79 enrichment R. The same measure for B18: 0.824 enrichment R; for B19: 0.776 enrichment R; for B20: 0.82 enrichment R.

For B21, the binding signal worked out at 0.679 enrichment R.

B22 came in with a binding signal of 1.34 enrichment R.
